In all, about 50,000 compounds went through this assay and about 800 (1.6%) showed an effect of 50% or more. Some of the results follow.
The compounds below were run against Bcl-2-like protein 10 (Homo sapiens) (UniProt Q9HD36) (assay: Phenotype converters, Bcl-B/TR3 peptide binding displacement, primary biochemical FP (AID 1240;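 note: 0% = Bcl-B with tracer peptide and DMSO and 100% = tracer peptide lacking Bcl-B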)). Conditions: GST-Bcl-B / FITC-TR3 peptide fluorescence polarization; stronger effect = higher value; compound at 3.75 mg/L.
Sequence of UniProt Q9HD36 (Q9HD36 whole entry, looked up): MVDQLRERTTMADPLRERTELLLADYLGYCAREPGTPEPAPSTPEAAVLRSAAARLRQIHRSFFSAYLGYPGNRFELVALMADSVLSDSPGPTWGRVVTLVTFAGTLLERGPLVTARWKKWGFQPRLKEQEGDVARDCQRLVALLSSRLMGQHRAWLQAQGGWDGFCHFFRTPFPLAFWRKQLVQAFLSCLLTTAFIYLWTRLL
Work on `CCCCOc1ccc(C(=O)NN)cc1` yielded a displacement of -5.4%. In the case of `CC(C)CC(NC(=O)c1ccccc1)C(=O)OCC(=O)N1c2ccccc2Sc2ccccc21` (stereo unspecified), the displacement is reported as 9.1%. `CCN(CC)c1ccc(/C=C2\C(=O)NC(=O)N(Cc3ccccc3)C2=O)c(OC)c1` was tested, and the displacement was 14.6%. Compound `Cc1ccc(-n2nc(C)c3c(C)cc(=O)oc32)cc1Cl` has a displacement of 35.1%. For `COc1cc(NC(=O)c2ccc(-c3cccc(Cl)c3)o2)ccc1NC(=O)c1ccco1`, the displacement was 15%. In the case of `CCc1ccc(S(=O)(=O)N2CCN(C)CC2)cc1`, the displacement is reported as 7.1%. Work on `COc1cc(C=C2C(=O)N(C)C(=O)N(C)C2=O)ccc1OC(C)c1ccccc1` (stereo unspecified) yielded a displacement of 120%. Work on `CC1=C(C)CC2C(=O)N(c3ccc([N+](=O)[O-])cc3)C(=O)C2C1` (stereo unspecified) yielded a displacement of -4.8%. `COc1ccc(C2C(C(=O)OC(C)C)=C(C)N=c3s/c(=C\c4ccc(Br)o4)c(=O)n32)cc1` (stereo unspecified) was tested, and the displacement was 5.3%. In the case of `O=C(NCC1CCN(C(=O)c2c(F)c(F)c(F)c(F)c2F)CC1)c1c(F)c(F)c(F)c(F)c1F`, the displacement is reported as -0.8%. `CC1=C(C(=O)Nc2cccc(C)c2)C(c2ccc(Br)cc2)NC(=O)N1` (stereo unspecified) was tested, and the displacement was 11.8%. For `Cc1ccc(C(=O)Nc2ccccc2)cc1`, the displacement was -0.6%. With `O=C1c2ccc(-c3nc4ccccc4c(=O)o3)cc2C(=O)N1c1ccc(I)cc1` the displacement was -7.1%. `O=C(O)C1CCCCC1C(=O)N1CCN(c2ccc(Cl)cc2)CC1` (stereo unspecified) was tested, and the displacement was 4.5%. With `COc1ccc(NC(=O)c2c(N)sc(-c3ccccc3)c2C)cc1` the displacement was -3.6%. With `COc1ccc(OC)c(S(=O)(=O)N2CCC(Cc3ccccc3)CC2)c1` the displacement was 14.9%. Work on `Cc1c(Cl)cccc1N1C(=O)C2C3C=CC(C3=C3CCCCC3)C2C1=O` (stereo unspecified) yielded a displacement of -3.3%. Compound `O=C(c1cccc2c(Br)cccc12)N1CCN(c2ccc([N+](=O)[O-])cc2)CC1` has a displacement of 12.9%. `CC(C)C(=O)NS(=O)(=O)c1ccc(N)cc1` gave a displacement of 13.6%. Work on `CCOC(=O)c1c(C)oc2ccc(OCc3ccccc3)cc12` yielded a displacement of 8%. Work on `CCCCCCOc1ccc(N2C(=O)CC(N3CCN(Cc4ccccc4)CC3)C2=O)cc1` (stereo unspecified) yielded a displacement of 10%. In the case of `COc1cc(OC)c(OC)cc1CN1CCN(C(=O)c2ccccc2F)CC1`, the displacement is reported as -0.9%. `COc1cccc(NC(=O)CN(c2ccccc2)S(=O)(=O)c2ccccc2[N+](=O)[O-])c1` was tested, and the displacement was 18.5%. `COc1ccc(C2Nc3ccccc3NC3=C2C(=O)CC(C)(C)C3)cc1` (stereo unspecified) showed a displacement of 1%. For `Cc1ccc(C(=O)Nc2ccc(OC(F)(F)F)cc2)cc1`, the displacement was 36.3%. Compound `CCC(=O)c1ccc(Br)cc1[N+](=O)[O-]` has a displacement of -10.2%. `CC(=O)C(/C=N/c1ncc(C(F)(F)F)cc1Cl)=C(\C)O` was tested, and the displacement was -1.7%. For `O=C(Nc1ccc2c(c1)oc1ccccc12)c1cccc2ccccc12`, the displacement was 2.3%. In the case of `CC1(C)Cc2ccccc2/C(=C/C(=O)c2ccccc2[N+](=O)[O-])N1`, the displacement is reported as 11.8%. Compound `COc1ccc(NC(=O)CN(c2ccccc2)S(=O)(=O)c2ccccc2[N+](=O)[O-])c(OC)c1` has a displacement of 3.3%. `Cc1occc1C(=O)O/N=C(\N)c1ccccc1` showed a displacement of 14.5%. `CS(=O)(=O)N(CC(=O)Nc1cccc(Cl)c1)c1cccc(C(F)(F)F)c1` gave a displacement of 6%. For `Cc1cccc(N2C(=O)CSC2=O)c1`, the displacement was -0.8%. `Cc1cccc(CC2SC(=Nc3ccccc3)NC2=O)c1` (stereo unspecified) showed a displacement of 1.4%. Work on `O=C(CSc1nnc(CCCN2C(=O)c3cccc4cccc(c34)C2=O)n1-c1ccccc1)NCCCN1CCOCC1` yielded a displacement of -7%. For `CS(=O)(=O)N(CC(=O)NC1CCCCC1)c1ccc(Oc2ccccc2)cc1`, the displacement was 5.8%. `O=S(=O)(NCC(c1ccccc1)N1CCNCC1)c1ccc(Cl)cc1` (stereo unspecified) gave a displacement of 12.2%. `Cc1ccc(S(=O)(=O)Nc2nc(O)c(C3=c4cc(Cl)ccc4=NC3=O)s2)cc1` showed a displacement of 12.1%. `CN1C(=O)/C(=C/c2ccc(C(=O)O)cc2)SC1=S` gave a displacement of 10.4%. Compound `CCc1ccc(-n2c(C)cc(/C=N/n3cnnc3)c2C)cc1` has a displacement of -2.3%. For `CCOC(=O)c1c(NC(=O)C23CC4CC(CC(C4)C2)C3)sc(C(=O)Nc2ccccc2OC)c1C`, the displacement was 16.1%. Work on `O=C(Nc1ccc(Cl)c(Cl)c1)c1nn2c(c1Br)NC(c1cccs1)CC2C(F)(F)F` (stereo unspecified) yielded a displacement of 2.8%. `O=C1C2C3C=CC(C4CC34)C2C(=O)N1c1ccc(F)cc1` (stereo unspecified) gave a displacement of 2.2%. With `O=C1N=C(N2CCOCC2)S/C1=C/c1ccc(Cl)cc1Cl` the displacement was 4.8%. `CC1=C(C(=O)Nc2ccccc2Cl)C(c2ccc([N+](=O)[O-])cc2)NC(=O)N1` (stereo unspecified) gave a displacement of -10.5%. `COc1ccc(OC(C)C(=O)NCCc2nc3ccccc3[nH]2)cc1` (stereo unspecified) gave a displacement of 1.4%. Work on `COC(=O)C1=NN(C(=O)c2ccc(Br)cc2)C(O)(C(C)(C)C)C1` (stereo unspecified) yielded a displacement of 16.2%. `O=C1OC(c2ccc(Cl)cc2)=C/C1=C\c1ccco1` gave a displacement of 9.7%. `Cc1ccc(C(=O)Nc2cc(C(F)(F)F)cc(C(F)(F)F)c2)cc1` showed a displacement of -4.7%. Compound `O=C1NC(=S)N(c2ccccc2)C(=O)/C1=C/c1cccn1-c1ccccc1` has a displacement of 31.2%. `CC1CCOP(=O)(C(Nc2ccc(C(C)C)cc2)c2ccc([N+](=O)[O-])cc2)O1` (stereo unspecified) gave a displacement of -1.6%. `O=S(=O)(c1cccs1)N1CCc2ccccc2C1` showed a displacement of 9.9%. With `CCOC(=O)C/C(C)=N\NS(=O)(=O)c1ccc(Oc2ccc([N+](=O)[O-])cc2)cc1` the displacement was -8.5%. `COc1ccc(OC)c(NC(=O)COc2ccc(Cl)c(C)c2)c1` showed a displacement of -2.9%. For `Cc1ccc2nc(-c3ccc(OC(=O)c4ccccc4F)cc3)sc2c1`, the displacement was 76.4%. In the case of `CCCn1c(NCCO)nc2ccccc21`, the displacement is reported as 0.7%. `NC1=NC2(CCCC2)N=C(Nc2ccc(Cl)cc2)N1` gave a displacement of -7.8%. For `COc1ccc(-n2cnc(N)c2C(=O)c2cccc([N+](=O)[O-])c2)cc1`, the displacement was 14.8%. For `O=C(NCc1ccc2c(c1)OCO2)C(=O)Nc1nc(C23CC4CC(CC(C4)C2)C3)cs1`, the displacement was -15.1%. `Cc1cccc(C)c1OCC(=O)Nc1cc(C(=O)O)cc(C(=O)O)c1` was tested, and the displacement was -9.1%. `Brc1cccc(-c2nnc(-c3ccccc3)o2)c1` was tested, and the displacement was 3.6%. For `CCCn1c(C(O)(c2ccccc2)c2ccccc2)nc2ccccc21`, the displacement was 10.4%. `COc1ccc(C2SCC(=O)N2c2c(C)n(C)n(-c3ccccc3)c2=O)cc1` (stereo unspecified) showed a displacement of -6.2%. `COc1ccc(/C=C(\NC(=O)c2ccc([N+](=O)[O-])cc2)C(=O)NCCCn2ccnc2)cc1` showed a displacement of 8.3%. Work on `CC1C(=O)C(C)C(c2ccc3c(c2)OCO3)NC1c1ccc2c(c1)OCO2` (stereo unspecified) yielded a displacement of -8.4%. Compound `CCOC(=O)C1=C(c2ccccc2)N=c2s/c(=C\c3cccnc3)c(=O)n2C1c1cc(OC)ccc1OC` (stereo unspecified) has a displacement of -3%.
